# Source: publication PMC6919601, “Identification of Plasmodium dipeptidyl aminopeptidase allosteric inhibitors by high throughput screening” (PLoS ONE, 2019)
# About 230 (0.21%) of roughly 110,000 compounds showed an effect of 50% or more. This is one part of the list.
# Target: DPAP1 (Plasmodium falciparum, UniProt Q8IIJ9)
# Assay: primary screen, percent inhibition; read by cleavage of a fluorogenic dipeptide substrate; higher = more effect of the substance
# Design: species or system P. falciparum D10 trophozoite lysates; single well
# 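Further: 30 min substrate incubation versus DMSO and 10 µM JCP410 controls.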
# Sequence of DPAP1 (Q8IIJ9 whole entry, looked up): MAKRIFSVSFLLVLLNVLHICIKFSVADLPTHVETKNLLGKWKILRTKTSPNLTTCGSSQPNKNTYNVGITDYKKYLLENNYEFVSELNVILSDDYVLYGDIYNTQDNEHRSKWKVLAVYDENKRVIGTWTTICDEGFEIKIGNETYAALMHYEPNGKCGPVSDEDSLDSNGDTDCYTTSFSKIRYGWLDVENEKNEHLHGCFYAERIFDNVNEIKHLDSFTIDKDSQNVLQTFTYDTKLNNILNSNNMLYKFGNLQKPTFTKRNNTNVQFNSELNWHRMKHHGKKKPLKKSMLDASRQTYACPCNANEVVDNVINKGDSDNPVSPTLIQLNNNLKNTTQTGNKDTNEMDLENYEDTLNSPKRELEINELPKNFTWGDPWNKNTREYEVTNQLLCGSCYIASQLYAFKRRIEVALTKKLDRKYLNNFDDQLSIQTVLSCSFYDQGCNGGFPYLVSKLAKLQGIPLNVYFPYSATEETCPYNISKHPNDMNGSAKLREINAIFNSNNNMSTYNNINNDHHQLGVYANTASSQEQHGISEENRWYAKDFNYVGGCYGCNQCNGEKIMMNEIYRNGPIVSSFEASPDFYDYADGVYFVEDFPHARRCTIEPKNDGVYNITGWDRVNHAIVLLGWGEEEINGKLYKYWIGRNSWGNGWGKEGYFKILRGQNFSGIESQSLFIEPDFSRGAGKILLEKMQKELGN
row,SMILES,% Inhibition @ 10 uM [%]
1,CC12CN3CC(C)(CN(C1)C3c1c[nH]c3ccccc13)C2O (stereo not shown),-1.55
2,COc1ccccc1C1C2=C(O)CCCC2=Nc2nnnn21 (stereo not shown),-3.53
3,COc1ccc(C(=O)Nc2sc(C)c(C)c2C(N)=O)cc1,-0.088
4,Cc1ccc(CN(Cc2ccco2)C(=O)c2ccccc2C)cc1,1.25
5,CCOc1ccc(C(=O)Nc2c3c(nn2-c2cccc(C)c2C)CS(=O)(=O)C3)cc1OCC,-1.28
6,CC(=O)c1cc(-c2ccc(F)cc2)n(CCC(=O)NCc2ccccc2)c1C,6.11
7,COc1ccc(CN2CCN(C(=O)Cc3ccccc3)CC2)cc1OC,19.8
8,COc1ccc(CN(C)CCc2ccccn2)cc1,0.147
9,COc1ccc(C2NC(=O)Cc3cc(OC)c(OC)cc32)cc1OC (stereo not shown),-3.44
10,O=C1CC(N2CCN(C/C=C/c3ccccc3)CC2)C(=O)N1c1ccc(Cl)cc1 (stereo not shown),6.33
11,COc1cccc(CNc2nc(SC)ncc2CO)c1,-3.25
12,CC(C)(O)C(=O)/C=C/c1ccccc1Cl,5.29
13,O=C(O)CCC(=O)Nc1ccc(N2CCN(CCO)CC2)cc1,3.91
14,Cc1nn(C)c(C(=O)Nc2ccn(Cc3ccccc3F)n2)c1Br,0.709
15,Cc1nnc2c(NC(C)c3ccccc3)nc3ccc(C(=O)c4ccccc4)cc3n12 (stereo not shown),5.84
16,COc1ccc(CCCC(=O)Nc2ccc(F)cc2)cc1,-6.65
17,O=C(CCN1C(=O)c2ccccc2C1=O)Nc1ccccc1C(=O)NC1CCCCCC1,1.08
18,O=S(=O)(c1ccc(Br)c2nsnc12)N1CCC(Cc2ccccc2)CC1,15.4
19,COc1ccc(Br)cc1CN1C(=O)c2ccccc2C1C(=O)NCC1CCCO1 (stereo not shown),-3.21
20,CCC(=O)N1c2ccccc2C(Nc2ccccc2)CC1C (stereo not shown),-3.41
21,CCc1cc(C(=O)Cc2nc3ccccc3s2)c(O)cc1O,-4.08
22,COc1cc(C2c3c(oc4cc(C)c(C)cc4c3=O)C(=O)N2c2ccccn2)cc(OC)c1OC (stereo not shown),-3.13
23,Cc1c(CNC2CCCc3ccccc32)c(C(=O)O)c(C)n1Cc1ccccc1F (stereo not shown),-0.23
24,COc1cc(CNCCCSc2nnnn2C)cc(OC)c1OC,-2.88
25,CCCN1C(=O)c2[nH]nc(-c3ccc(OC)cc3)c2C1c1cccnc1 (stereo not shown),-4.67

row,SMILES,% Inhibition @ 10 uM [%]
1,Cc1ccc2c(=O)cc(C(=O)N(Cc3ccc(Cl)cc3)C3CCS(=O)(=O)C3)oc2c1 (stereo not shown),0.248
2,CCCOc1ccc(-c2nonc2NC(=O)C(C)C)cc1OCCC,1.9
3,Nc1c(S(=O)(=O)c2ccccc2)c2nc3ccccc3nc2n1CCO,-8.11
4,Cc1c(C(=O)OC2CCCCC2)[nH]c2c1C(=O)CC(c1ccco1)C2 (stereo not shown),-2.19
5,Cc1ccc(Cn2cccc2/C=C2\C(=N)N3N=C(N4CCCC4)SC3=NC2=O)cc1,3.32
6,O=C([C@@H]1C[C@@H]1c1ccccc1)N1CCOCC1,3.1
7,N#CC1=C(S)NC(=O)C(C#N)C12CCCCC2 (stereo not shown),57.8
8,O=C(Nc1cc(Cl)ccc1Cl)C1CC(=O)N(c2ccc(Cl)cc2)C1 (stereo not shown),1.71
9,Cc1ccc(CCNC(=O)C2CC(=O)N(CCC(C)C)C2)cc1 (stereo not shown),5.35
10,C=CCNC(=O)COCc1cc(-c2cccs2)on1,1.6
11,Nc1ncc(Br)cc1S(=O)(=O)NCCC(=O)N1CCN(c2ccccn2)CC1,-0.0652
12,N=C1/C(=C\c2ccc(O)c(O)c2)C(=O)N=C2SC(N3CCCC3)=NN12,-1.66
13,CC1(C)CC(=O)C2=C(C1)N(Cc1ccc(F)cc1)C(=O)C2(NC(=O)c1cccnc1)C(F)(F)F (stereo not shown),3.54
14,Cc1ccc(S(=O)(=O)N(CC(=O)NC(C)c2ccccc2)Cc2ccccc2)cc1 (stereo not shown),0.131
15,CCSC1=C(C#N)C2(CCCC2)C(C#N)C(=O)N1 (stereo not shown),1.44
16,O=C(O)c1cccnc1SC1CC(=O)N(C2CCCCC2)C1=O (stereo not shown),-4.43
17,O=C(Cc1ccc(Cl)cc1)N1CCN(c2ccc(F)cc2)CC1,-3.29
18,O=C1c2cccnc2C(=O)N1Cc1ccc(S(=O)(=O)NCc2ccc(Cl)cc2)cc1,7.06
19,CC(C)CNC(=O)c1nc(-c2ccc(Cl)cc2)n2c1CCCCC2,2.73
20,O=C(c1cnc2c(c1)COc1ccccc1-2)c1cc(Cl)ccc1O,-10.8
21,COc1cc(Cl)cc(Cl)c1C1C(C#N)=C(N)OC2=C1C(=O)CCC2 (stereo not shown),-14.1
22,CC(NC(=O)Cc1ccccc1)C1COc2ccccc2O1 (stereo not shown),-1.88
23,COc1cccc(C2C3=C(O)CC(c4ccccc4)CC3=Nc3ccccc3N2C(=O)CCC(=O)O)c1 (stereo not shown),-0.25
24,CN1CCN(c2ccc3nnc(CCC(=O)NCc4ccco4)n3n2)CC1,-6.47
25,Cc1cc(NC(=O)CSc2nnc(-c3ccc(C)c(C)c3)o2)no1,-4.03

row,SMILES,% Inhibition @ 10 uM [%]
1,COc1cc(OC)cc(C(=O)Nc2cccnc2)c1,13.2
2,Cc1cc(/C=C2/NC(=O)N(Cc3ccccc3F)C2=O)c(C)n1-c1ccccn1,-2.21
3,CCN(CC)CCCNC(=O)CCn1c(=O)c2cccn2c2cccnc21,5.41
4,Clc1ccccc1OCc1nn2c(COc3ccccc3)nnc2s1,0.0539
5,N#Cc1cc2c(=O)n3ccccc3nc2n(Cc2ccccc2)c1=N,0.408
6,O=c1c(C(CC(O)c2ccc(-c3ccccc3)cc2)c2ccccc2)c(O)oc2ccccc12 (stereo not shown),-2.62
7,Cc1cccc(CCNC(=O)c2cc3c(s2)-c2ccccc2OC3)c1,-4.85
8,Cc1cc(-c2ccccc2)n(-c2ccc(C(N)=O)cc2)n1,0.83
9,Cc1cc(C)cc(NC(=O)Cn2cnc3c2c(=O)n(C)c(=O)n3C)c1,-2.22
10,O=C1c2ccncc2C(=O)N1c1cccc(C(F)(F)F)c1,-3.34
11,Cc1cccn2c(=O)c3cc(C#N)c(=O)n(Cc4ccco4)c3nc12,-4.07
12,CC1CCc2nc3sc4c(c3c(N)c2C1)CCCC4 (stereo not shown),-3.34
13,CC(C)Cc1nnc(O)c2c1nnn2Cc1ccccc1F,-1.31
14,NC(=O)c1cc2nc3c(c(C(F)(F)F)n2n1)CCc1ccccc1-3,-1.06
15,CCCCc1n[nH]c(SCC(=O)Nc2nc(C)c(C(=O)OCC)s2)n1,3.72
16,CCOc1ccccc1-n1c(CCC(=O)O)ccc1-c1cccs1,-5.85
17,CCC1CCc2nc3sc(C(=O)Nc4ccc(OC)cc4)c(N)c3cc2C1 (stereo not shown),-4.21
18,Cn1nc(C(=O)N2CCC(c3ccccc3)C2)c2c1-c1ccccc1S(=O)(=O)C2 (stereo not shown),3.71
19,COc1ccc(Cl)cc1N(CC(=O)Nc1ccc(C(N)=O)cc1)S(C)(=O)=O,-5.14
20,COc1c(C#N)c(C#N)c(OC)c(OC)c1OC,-6.01
21,CCCN1C/C(=C\c2ccc3c(c2)OCO3)C(=O)/C(=C/c2ccc3c(c2)OCO3)C1,2.94
22,OCC1CCCN1Cc1ccc(Cl)c(Cl)c1 (stereo not shown),-3.5
23,O=C(O)CSc1cc(NS(=O)(=O)c2ccc(Br)cc2)c2ccccc2c1O,-6.35
24,O=C(c1ccccc1F)N1CCN(C(c2ccccc2)c2ccccc2)CC1,2.78
25,O=C(NCC1CCCO1)C12CC3CC(CC(C3)C1)C2 (stereo not shown),2.22

row,SMILES,% Inhibition @ 10 uM [%]
1,CCc1ccc(OCC(=O)Nc2ccc(S(=O)(=O)N3CCC(C)CC3)cc2)c(Br)c1,-0.312
2,Cc1cc(C)c(-c2c(NC(C)(C)C)c(=O)c2=O)cc1C,3.08
3,C=CCNC(=O)/C(=C\c1ccco1)NC(=O)c1ccco1,7.1
4,COc1ccc(C(CC(=O)NCc2ccccc2Cl)N2Cc3ccccc3C2=O)cc1 (stereo not shown),-5.54
5,COc1ccc(C(=N)NOC(=O)c2cccc(F)c2)cc1,3.8
6,CCn1c2c(c3cc(F)ccc31)CCCC2=O,4.66
7,CC(=O)C1=C(C)OC(N)=C(C#N)C1c1cccs1 (stereo not shown),3.05
8,CCC1CCCCN1C(=O)CSc1nnc(CNC(=O)COc2ccc(Cl)cc2)o1 (stereo not shown),-3.39
9,O=C(NCCCO)/C(=C/c1ccc2c(c1)OCO2)NC(=O)c1ccco1,0.222
10,COc1ccccc1-c1nnc2sc(-c3cccc(Cl)c3)nn12,-5.91
11,O=C1c2ccccc2C(=O)c2c1cccc2S(=O)(=O)NCCO,4.74
12,CC(=O)c1ccc(S(=O)(=O)N2CCN(CCC#N)CC2)cc1,-1.82
13,Cc1cccc2sc(NC(=O)C(NS(=O)(=O)c3cccs3)C(C)C)nc12 (stereo not shown),0.0654
14,CCN1CCN(C(=O)c2ccc(CS(=O)c3ccc(Br)cc3)o2)CC1 (stereo not shown),0.458
15,CC(C)CNC(=O)c1cc(-c2ccc(Cl)c(Cl)c2)on1,-1.21
16,Nc1nc(-c2ccccc2)cc(-c2ccccc2)n1,-3.38
17,CCC(C)NC(=O)COc1cccc(C)c1C (stereo not shown),0.58
18,CCOC(=O)N1CCN(C(=O)c2cc3c(ccc4ccccc43)oc2=O)CC1,-8.88
19,Cc1cc(C)cc(NC2=C(Cl)C(=O)N(Cc3ccccc3)C2=O)c1,2.76
20,COc1cc2c(cc1OC)C(C)N(CCC(=O)O)CC2 (stereo not shown),-2.29
21,Cc1cccn2c(=O)c3cc(S(=O)(=O)c4ccc(Cl)cc4)c(=N)n(Cc4ccncc4)c3nc12,1.57
22,O=C(O)CCCC(=O)Nc1ccccc1Br,-6.22
23,Cc1nn(CC(=O)NCCCN(Cc2ccccc2)C(C)C)c(=O)c2nn(-c3ccccc3)c(C)c12,-2.12
24,CCN1CCN(Cc2cc3c(cc2[N+](=O)[O-])OCO3)CC1,-0.828
25,CC1CCCN(c2nc3nonc3nc2N2CCCC(C)C2)C1 (stereo not shown),-2.15
